Source: PubChem BioAssay AID602293 (National Center for Advancing Translational Sciences (NCATS), 2012)
In all, about 1,300 compounds went through this assay and about 30 (2%) were called active. Another 10% or so got no clear call; they are omitted. Calls follow the shape of the dose curve; as a rule, active = well fitted inhibition curve with a large enough effect; inconclusive = small, poorly fitted or top-dose-only effect; inactive = flat fitted curve, though single readings scatter. The list shows a part of the results.

test: qHTS for antagonists of the Thyroid Stimulation Hormone Receptor: Hit Validation in HTRF Activity in a Luteinizing Hormone Receptor Cell Line; details: LHR-expressing cell line, cAMP HTRF, antagonist mode; series mostly up to 58 µM; activity change, negative = inhibition: at the top concentration
Outline: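 HEK 293 cells stably expressing LH receptor, in DMEM with 10% FCS and 100 uM RO 20-1724, incubated with compound 30 min at room temperature. cAMP measured by competitive HTRF (anti-cAMP cryptate vs cAMP-d2), excitation 330 nm, emissions 615 and 660 nm.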
% is scaled to controls: 0 for no effect and ±100 for the full control effect; potency is read from the fitted curve at half-maximal effect.

Compound | activity change, negative = inhibition | Potency
Cc1ccc(CN2C(=O)c3ccccc3Sc3ccc(C(=O)NCCCN4CCOCC4)cc32)cc1 | inactive: -1.01% | 
O=C(CN1C(=O)NC2(CCCc3ccccc32)C1=O)N1CCN(c2cccc(C(F)(F)F)c2)CC1 (configuration not stated) | inactive: -0.905% | 
CCCCn1c(/N=C/c2ccccc2NS(=O)(=O)c2ccc(C)cc2)nc2ccccc21 | inactive: -0.666% | 
Cc1ccc(S(=O)(=O)N(Cc2ccccc2)c2ccccc2C(=O)N2CCCCC2)cc1 | inactive: -4.43% | 
O=C(Nn1cnnc1)C(c1ccccc1)c1ccccc1 | inactive: 0.913% | 
O=C(CSc1nc(-c2ccc(Cl)cc2)cs1)Nc1cccc([N+](=O)[O-])c1 | inactive: -2.02% | 
CC1Cc2ccccc2N1C(=O)COC(=O)/C=C/c1cccc(F)c1 (configuration not stated) | inactive: -1.41% | 
COc1cccc(CNC(=O)c2nnn(CC(=O)Nc3cc(Cl)ccc3C)c2N)c1 | inactive: -1.09% | 
N#C/C(=C\c1ccc(Oc2ccc(C(F)(F)F)cc2[N+](=O)[O-])cc1)c1nc2ccccc2[nH]1 | inactive: -4.27% | 
O=C(Nc1c(F)cc(F)cc1Br)c1cc(-c2ccc(O)cc2)on1 | inactive: -2.05% | 
N=c1oc2ccccc2cc1C(=O)NC1CCCCCC1 | inactive: -0.828% | 
O=C(NCCN1CCOCC1)c1c(Cl)cccc1Cl | inactive: 2.3% | 
COc1ccc(CN2CCCN(C)CC2)c(OC)c1C | inactive: 1.58% | 
Cc1nn(CCCC(=O)Nc2cc(Oc3ccccc3)cc([N+](=O)[O-])c2)c(C)c1[N+](=O)[O-] | inactive: -1.58% | 
Cc1cc(C)n(C(=O)/C(C#N)=N/Nc2cc(Cl)cc(Cl)c2)n1 | inactive: -1.47% | 
Cc1ccc(-c2ccc(/C=N/N=C3/NC(=O)C(CC(=O)O)S3)o2)c([N+](=O)[O-])c1 (configuration not stated) | inactive: 1.91% | 
O=C1C=CC(=O)N1CCCCCCN1C(=O)C=CC1=O |  | active: 33.8 µM
CCn1nc([N+](=O)[O-])c(C(C#N)c2nc3cc(C(F)(F)F)ccc3s2)c(Cl)c1=O (configuration not stated) | inactive: -0.764% | 
CCCn1nnc(NC(=O)C(C)Oc2ccc(Cl)cc2Cl)n1 (configuration not stated) | inactive: 1.8% | 
Cc1ccc(SC(CC(=O)c2ccc(C(C)(C)C)cc2)C(=O)O)cc1 (configuration not stated) | inactive: -0.365% | 
O=c1nc(/C=C/c2ccccc2C(F)(F)F)cc(C(F)(F)F)[nH]1 | inactive: 2.32% | 
C/C(=N\NC(=O)c1cccc(Cl)c1)C1C(=O)c2ccccc2C1=O | inactive: -1.37% | 
Brc1ccc(-c2nnc(-c3cccc(Br)c3)o2)cc1 | inactive: 2.12% | 
Cc1csc(NC(=O)c2cc3c(s2)CCCC3)n1 | inactive: -3.61% | 
CN(c1ccc(C(=O)NCCSCc2ccccc2)cc1)S(=O)(=O)c1ccccc1 | inactive: 1.01% | 
COc1ccccc1NS(=O)(=O)c1cc(NC(=O)c2ccc3c(c2)OCCO3)ccc1C | inactive: -4.31% | 

Compound | activity change, negative = inhibition | Potency
CCn1c(=NC(=O)CSC(C)=O)sc2ccccc21 | inactive: -0.266% | 
CCOc1ccccc1/C=C/c1onc(C)c1S(=O)(=O)N1CCC(C(=O)N2CCCCCC2)CC1 | inactive: -2.69% | 
N=c1oc2cc(O)ccc2cc1C(=O)Nc1ccc(Br)cc1 | inactive: -3.72% | 
COCC(C)n1c(COc2ccccc2F)nnc1SCc1c(C)noc1C (configuration not stated) | inactive: 0.548% | 
Cc1cc(C#N)c(SCC(N)=O)nc1-c1ccc(F)cc1 | inactive: -0.969% | 
CC(C)(C)C(=O)NC(=S)NNC(=O)c1ccc(-c2ccccc2)cc1 | inactive: 0.136% | 
N#Cc1cccc(NC(=O)COC(=O)c2cc(S(=O)(=O)Nc3ccccc3Cl)ccc2O)c1 | inactive: -0.298% | 
CC1=NN(C(N)=S)C(=O)C1N=Nc1c(Br)cc(Br)cc1Br (configuration not stated) | inactive: 1.89% | 
Cc1cccc(NC(=O)C2CCN(S(=O)(=O)c3ccc4c(c3)NC(=O)CO4)CC2)c1 | inactive: -0.591% | 
O=C(Nc1cccc2ccccc12)c1ccccc1 | inactive: -0.733% | 
CC1(C)CC2(CCCN3C(=O)CSC32)CCS1 (configuration not stated) | inactive: -0.704% | 
CC(=O)N1c2ccc(S(=O)(=O)NCCC(=O)Nc3ccccc3C)cc2CC1C (configuration not stated) | inactive: 3.24% | 
Cc1nn(-c2ccccc2)c(C)c1NC(=O)COc1ccc(Br)cc1Cl | inactive: -4.2% | 
Cc1cccc(N2CCN(S(=O)(=O)c3ccc4c(c3)NC(=O)CS4)CC2)c1C | inactive: -1.48% | 
O=[N+]([O-])c1ccc(N=Nc2c(Cl)cc(O)cc2Cl)cc1 | inactive: -4.86% | 
COc1ccc(C(=O)N2CCN(c3ccc([N+](=O)[O-])c(NCCc4ccc(OC)c(OC)c4)c3)CC2)cc1 | inactive: -8.33% | 
COc1ccc(Cc2nc(-c3ccc(-n4cccc4)cc3)no2)cc1OC | inactive: -3.5% | 
Cc1ccccc1NC(=O)C1C2CCCCC21 (configuration not stated) | inactive: 0.0637% | 
O=C(OCc1cc(Cl)ccc1OC(F)F)c1cncc(Br)c1 | inactive: -2.59% | 
CCN(c1ccccc1)S(=O)(=O)c1ccc(NC(=O)c2nc(S(C)(=O)=O)ncc2Cl)cc1 |  | active: 33.8 µM
CC1CCCC(NC(=O)CN2C(=O)COc3ccccc32)C1C (configuration not stated) | inactive: 0.207% | 
CC(C)Nc1nc(SC(C)C(=O)Nc2ccccc2)nc(N(C)C)n1 (configuration not stated) | inactive: -0.795% | 
CCOC(=O)c1cccc(OCC(O)CNCCOc2ccccc2F)c1 (configuration not stated) | inactive: 1.06% | 
Cc1ccc(S(=O)(=O)N2CCN(C(=O)Cc3ccsc3)CC2)c(C)c1 | inactive: 3.65% | 
CC(=O)NC12CC3CC(C1)CC(C(=O)OCC(=O)c1ccc4c(c1)OCCO4)(C3)C2 | inactive: 1.63% | 
CC1CC(C)CN(CCCNC(=O)CN2C(=O)COc3ccc(S(=O)(=O)N4CCOCC4)cc32)C1 (configuration not stated) | inactive: 0.256% | 

Compound | activity change, negative = inhibition | Potency
Cc1ccc(Nc2nc(N3CCOCC3)nc(N3CCOCC3)n2)cc1Cl | inactive: -0.121% | 
CCCc1nnc(NC(=O)c2nc(S(=O)(=O)Cc3cccc(C)c3)ncc2Cl)s1 | inactive: -2.86% | 
O=C(c1ccco1)N1CCN(c2ncnc3c2nnn3Cc2ccccc2Cl)CC1 | inactive: -2.54% | 
COC(=O)CSc1nc(-c2ccccc2)cc(-c2ccco2)c1C#N | inactive: -0.177% | 
O=C(O)c1nn(CC(=O)N2CCN(c3ncc(C(F)(F)F)cc3Cl)CC2)c(=O)c2ccccc12 | inactive: -0.623% | 
CCOC(=O)c1sc(NC(=O)c2cc(-c3ccccc3)nc3ccccc23)c(C#N)c1C | inactive: -1.11% | 
O=C(CNc1ccc(C(F)(F)F)cc1)Nc1cccc(S(=O)(=O)N2CCCC2)c1 | inactive: -0.726% | 
CC(C)N(Cc1ccccc1)C(=O)COC(=O)c1cnc(Cl)c(Cl)c1 | inactive: -3.98% | 
Cc1ccc(S(=O)(=O)c2c(C(=O)c3ccccc3)cnc3cc4c(cc23)OCCO4)cc1 | inactive: -0.498% | 
Cc1ccccc1N1CCN(C2CCCN(C(=O)c3cnsn3)C2)CC1 (configuration not stated) | inactive: 2.18% | 
CCCCOc1ccc(/C=N/Nc2cc(N3CCOCC3)nc(C)n2)cc1 | inactive: -3.37% | 
CCC(C)NC(=O)CN1C(=O)CSc2ccc(S(=O)(=O)N3CCCC3)cc21 (configuration not stated) | inactive: 0.925% | 
COc1ccc(-c2cn(CCCOCc3ccccc3)nn2)cc1 | inactive: 3.13% | 
COc1ccc(NS(=O)(=O)c2cn(C)cn2)cc1Cl | inactive: 0.0459% | 
CCCN1CCN(CCCNC(=O)Cn2nc(C)n3c(cc4cc(OC)ccc43)c2=O)CC1 | inactive: -0.0841% | 
O=C(NC1CCCCC1)C(c1cccs1)N(Cc1cccs1)C(=O)c1cccs1 (configuration not stated) | inactive: -9.17% | 
O=c1[nH]cccc1-c1nc2ccccc2n1Cc1ccc(F)cc1 | inactive: 0.695% | 
COC(=O)c1c(NC(NC(C)=O)C(Cl)(Cl)Cl)sc2c1CCCC2 (configuration not stated) | inactive: 1% | 
COc1ccc(S(=O)(=O)Nc2ccccc2C(=O)Nc2nc(-c3ccc(F)cc3)cs2)cc1OC | inactive: -2.16% | 
Cc1sc(N/N=C/c2cccnc2)nc1-c1ccccc1 | inactive: -4.09% | 
CCOc1ccc2nc(NC(=O)CS(=O)(=O)c3ccccc3)sc2c1 | inactive: 2.76% | 
CS(=O)(=O)N(Cc1ccccc1)c1ccc(C(=O)N2CCN(c3cccc(Cl)c3)CC2)cc1 | inactive: 2.28% | 
CCSc1ccc(C(=O)Nc2ccc(Br)cn2)cc1[N+](=O)[O-] | inactive: 1.58% | 
Cc1cccc(OCC(=O)Nc2nc3ccc([N+](=O)[O-])cc3s2)c1C | inactive: 2.41% | 
COc1cccc(C(=O)Nc2ccc(NC(=O)C3CCCCC3)nc2)c1 | inactive: -1.05% | 
CCOc1ccc(C2NC(=O)c3ccccc3O2)cc1OC (configuration not stated) | inactive: 2.7% | 

Compound | activity change, negative = inhibition | Potency
COc1ccc(N2CCN(c3ncnc4sc(C(=O)NCC5CCCO5)c(C)c34)CC2)cc1 (configuration not stated) | inactive: 1.47% | 
CC1CCN(S(=O)(=O)c2nnc(NC(=O)c3cccc([N+](=O)[O-])c3)s2)CC1 | inactive: 0.131% | 
CCCCCc1c2c(cc(O)c1C(=O)O)OC(=O)c1c(cc(OC)cc1C(=O)CCCC)O2 | inactive: 0.38% | 
Cc1ccc(NC(=O)Nc2ccc3c(c2)OCO3)c(OC(F)F)c1 | inactive: -1.96% | 
Cc1ccc(C2=NS(=O)(=O)N(C)C(C(=O)NCc3ccc(F)cc3)=C2)cc1 | inactive: 1.7% | 
C=CCN1C(=O)/C(=C/c2ccc(OC(C)=O)c(OCC)c2[N+](=O)[O-])SC1=S | inactive: 1.82% | 
O=C(Nc1ccc(C(=O)NCc2ccccc2Cl)cc1)C1=CSCCO1 | inactive: 0.338% | 
CNS(=O)(=O)c1cccc(C(=O)OCC(=O)N2c3ccccc3NC(=O)C2(C)C)c1 | inactive: 3.43% | 
Cc1cccc(-c2noc(CN(C)C(=O)c3ccco3)n2)c1 | inactive: 0.022% | 
COc1ccccc1C(=O)COC(=O)/C=C/c1ccccc1 | inactive: -1.25% | 
CN(C)C(=O)[C@H]1C[C@H]1[C@@H](O)[C@H](CO)NC(=O)[C@H](COCc1ccccc1)NC(=O)OC(C)(C)C | inactive: 3.51% | 
CC(C)c1cc(=O)n2[nH]c(SCc3ccccc3)nc2n1 | inactive: 3.15% | 
COc1cc(NS(=O)(=O)c2ccc(NC(=O)c3ccc(F)cc3)cc2)ncn1 | inactive: -2% | 
Cc1cc(C)n2c(C)nnc2c1 | inactive: 0.721% | 
CN(C)/C=C(/C(=O)c1ccc(Cl)cc1)S(=O)(=O)c1ccc(Cl)cc1 | inactive: 2.4% | 
CC(=O)NC1=C(Nc2ccc(N(C)C)cc2)C(=O)c2ccccc2C1=O | inactive: -3.23% | 
Cc1cc(C)c(-c2csc(NC(=O)/C=C/c3cccs3)n2)c(C)c1 | inactive: -2.02% | 
NS(=O)(=O)c1ccc(CNC(=O)CCS(=O)(=O)Cc2ccccc2)cc1 | inactive: 1.46% | 
CC1CN(C(=O)CCn2c(=O)oc3ccccc32)CC(C)O1 (configuration not stated) | inactive: 2.68% | 
Cc1ccc(CCNC(=O)CN2C(=O)COc3ccc(S(=O)(=O)N4CCC(C)CC4)cc32)cc1 | inactive: 1.81% | 
Clc1ccc(CCNc2ncnc3nc[nH]c23)cc1 | inactive: -2.95% | 
COc1ccc(OC)c(NC(=O)c2cc(S(=O)(=O)NCc3ccco3)ccc2F)c1 | inactive: -2.65% | 
COc1cc([N+](=O)[O-])cc(/C=C2/SC(=S)N(Cc3ccccc3)C2=O)c1O | inactive: -3.99% | 
Clc1ccc2c(c1)-c1nnc(Br)n1-c1ccccc1S2 | inactive: -0.905% | 
